# Data reported in PubChem BioAssay AID1347165 (National Center for Advancing Translational Sciences (NCATS), 2019).
# Out of some 220,000 compounds screened, about 5,700 (2.6%) were called active. The shares of active, inactive and inconclusive entries below differ from those in the screen. Calls come from the whole dose curve; as a rule, active = well fitted inhibition curve with a large enough effect; inconclusive = small, poorly fitted or top-dose-only effect; inactive = no such curve, though single readings can be large or run the other way. A potency beside an inconclusive call is a rough fit, not a confirmed value.
# Target: Lysine-specific demethylase 5B (Homo sapiens) (UniProt Q9UGL1)
# Test: Primary screen for KDM5B Histone Demethylases FDH-coupled qHTS; note: nearly all actives have a fitted effect of over 70% in size; for activity change, negative = inhibition: 0% is about no effect
# Conditions: FDH-coupled NADH fluorescence (FDH is formaldehyde dehydrogenase); activity change, negative = inhibition: at 57.7 µM (top of the series) unless noted
# Outline: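 Here, H3K4me3 peptide (12.5 µM in substrate mix) is demethylated by KDM5BΔAP, 200 nM final, after 10 min compound exposure. Formaldehyde product is coupled through FDH (0.25 U/mL in mix) to NADH fluorescence; 30-min ΔRFU feeds dose-response curves.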
# Potency is the fitted concentration of half-maximal effect; tags give direction and shape of the fitted curve.
# Chain of UniProt Q9UGL1 (Q9UGL1 whole entry, looked up): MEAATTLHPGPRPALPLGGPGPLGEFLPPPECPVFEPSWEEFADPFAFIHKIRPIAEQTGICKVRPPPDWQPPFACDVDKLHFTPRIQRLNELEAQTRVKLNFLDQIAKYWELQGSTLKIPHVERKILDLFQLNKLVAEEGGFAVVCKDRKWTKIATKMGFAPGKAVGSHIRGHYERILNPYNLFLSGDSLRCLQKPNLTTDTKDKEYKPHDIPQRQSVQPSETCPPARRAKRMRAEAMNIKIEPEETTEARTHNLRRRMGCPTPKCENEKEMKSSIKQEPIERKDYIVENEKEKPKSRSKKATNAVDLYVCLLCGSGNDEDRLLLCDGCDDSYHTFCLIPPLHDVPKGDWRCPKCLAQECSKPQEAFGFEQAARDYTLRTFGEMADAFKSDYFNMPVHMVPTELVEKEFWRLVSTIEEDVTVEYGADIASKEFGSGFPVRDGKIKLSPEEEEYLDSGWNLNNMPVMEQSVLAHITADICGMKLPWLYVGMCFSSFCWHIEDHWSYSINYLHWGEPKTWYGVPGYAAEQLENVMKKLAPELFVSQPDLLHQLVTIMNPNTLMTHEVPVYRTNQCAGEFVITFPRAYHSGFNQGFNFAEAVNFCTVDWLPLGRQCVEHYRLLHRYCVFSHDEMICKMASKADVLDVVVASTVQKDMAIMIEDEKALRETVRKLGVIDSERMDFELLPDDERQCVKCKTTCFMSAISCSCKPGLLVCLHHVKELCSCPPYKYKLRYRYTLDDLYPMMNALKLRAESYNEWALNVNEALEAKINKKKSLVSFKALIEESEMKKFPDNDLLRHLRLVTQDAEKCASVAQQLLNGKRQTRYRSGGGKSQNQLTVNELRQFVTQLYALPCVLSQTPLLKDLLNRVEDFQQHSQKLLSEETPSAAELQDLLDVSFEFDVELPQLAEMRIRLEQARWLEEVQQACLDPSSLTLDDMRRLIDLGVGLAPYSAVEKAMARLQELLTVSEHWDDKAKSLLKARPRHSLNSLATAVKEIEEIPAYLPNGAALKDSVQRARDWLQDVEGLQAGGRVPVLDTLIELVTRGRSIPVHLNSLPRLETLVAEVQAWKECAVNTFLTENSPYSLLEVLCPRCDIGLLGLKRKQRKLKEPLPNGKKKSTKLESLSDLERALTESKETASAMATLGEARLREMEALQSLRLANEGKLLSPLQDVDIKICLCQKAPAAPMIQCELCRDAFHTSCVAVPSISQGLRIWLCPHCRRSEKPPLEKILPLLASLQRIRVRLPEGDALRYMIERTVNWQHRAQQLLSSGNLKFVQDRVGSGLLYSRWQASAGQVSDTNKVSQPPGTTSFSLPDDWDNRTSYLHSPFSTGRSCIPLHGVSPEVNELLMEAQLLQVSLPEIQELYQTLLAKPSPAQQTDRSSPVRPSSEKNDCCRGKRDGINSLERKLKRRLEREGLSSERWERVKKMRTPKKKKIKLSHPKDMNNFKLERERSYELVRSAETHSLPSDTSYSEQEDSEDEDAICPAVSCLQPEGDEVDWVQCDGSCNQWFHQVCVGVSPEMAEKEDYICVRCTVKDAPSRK
SMILES,Potency,"activity change, negative = inhibition"
OCC1CCCN(c2ccc(-c3nc(-c4cccc(C(F)(F)F)c4)no3)cn2)C1 (configuration not stated),active: 28.2 µM,–
CC(=O)c1sc2c(c1C)c(=O)n(-c1ccc(Cl)cc1)c(=O)n2Cc1cc(=O)n2cc(Cl)ccc2n1,"inconclusive: 35.5 µM [inhibitor, partial curve, poor fit]",–
COc1ccc2[nH]c3c(c2c1)CCNC31CCN(C(=O)c2ccncc2)CC1,inactive,–
O=C1Cc2c(-c3ccc4ccccc4c3)n[nH]c2CN1Cc1ccccn1,"inconclusive: 56.2 µM [inhibitor, single point]",–
c1ccc(-c2cc(CC3(NCC4CCCCC4)COC3)no2)nc1,"inconclusive: 22.4 µM [inhibitor, partial curve]",–
COc1ccc(CNC(=O)C2CCN(c3nc4ccccc4[nH]3)CC2)c(OC)c1,–,inconclusive: -41.8% [inhibitor]
Cc1ccn2c(Nc3ccc(F)cc3)c(-c3ccc(C)o3)nc2c1,"inconclusive: 10 µM [inhibitor, partial curve, poor fit]",–
O=C(CSc1ncc(CO)n1Cc1ccccc1)Nc1nc2ccccc2s1,"inconclusive: 1.12 µM [inhibitor, full curve, poor fit]",–
CC[C@@]1(C(=O)O)C[C@H](C(=O)N(C)CC(=O)O)[C@H](c2ccc(OC)cc2)N1C,"inconclusive: 10 µM [inhibitor, partial curve]",–
COc1ccc(C(=O)N2CCC3(CC2)OC(=O)N(Cc2ccccc2F)C3(C)c2ccccc2)cn1 (configuration not stated),"inconclusive: 35.5 µM [inhibitor, single point]",–
COCCOCC(=O)N1CCC2(CC1)c1[nH]c3ccc(OC)cc3c1CCN2C,active: 28.2 µM,–
Cn1nc(-c2nncn2CC2CC2)c2c1CCN(C(=O)C1CC1)C2,inactive,–
COc1ccc(OC)c(NC(=O)CCn2cnnn2)c1,inactive,–
COc1ccc(CCNC(=O)c2cc(-c3ccc(C)cc3)nc3n[nH]c(-c4ccccc4)c23)cc1OC,"inconclusive: 28.2 µM [inhibitor, partial curve, poor fit]",–
COc1ccc(CNC(=O)c2cc3c(=O)[nH]c4ccc(C)cc4c3s2)c(OC)c1,"inconclusive: 39.8 µM [inhibitor, single point]",–
O=C(/C=C/c1cccc(C(F)(F)F)c1)c1cccc(N2CCCC2=O)c1,"inconclusive: 17.8 µM [inhibitor, partial curve, poor fit]",–
CCCn1c(=O)[nH]c(=O)c2c1nc(-c1ccc(C#N)cc1)n2CCN1CCOCC1,"inconclusive: 22.4 µM [inhibitor, partial curve, poor fit]",–
